According to publication PMC4336329 (PLoS ONE, 2015):
Out of some 310,000 compounds screened, about 2,200 (0.71%) showed an effect of 50% or more. Effects have a minus sign here. This is one part of the list.

The molecules below were run against human ether-à-go-go-related gene (hERG) potassium channel (human, UniProt Q12809) (assay: primary screen, population patch clamp on CHO cells stably expressing hERG).
human ether-à-go-go-related gene (hERG) potassium channel, sequence (Q12809 whole entry, looked up): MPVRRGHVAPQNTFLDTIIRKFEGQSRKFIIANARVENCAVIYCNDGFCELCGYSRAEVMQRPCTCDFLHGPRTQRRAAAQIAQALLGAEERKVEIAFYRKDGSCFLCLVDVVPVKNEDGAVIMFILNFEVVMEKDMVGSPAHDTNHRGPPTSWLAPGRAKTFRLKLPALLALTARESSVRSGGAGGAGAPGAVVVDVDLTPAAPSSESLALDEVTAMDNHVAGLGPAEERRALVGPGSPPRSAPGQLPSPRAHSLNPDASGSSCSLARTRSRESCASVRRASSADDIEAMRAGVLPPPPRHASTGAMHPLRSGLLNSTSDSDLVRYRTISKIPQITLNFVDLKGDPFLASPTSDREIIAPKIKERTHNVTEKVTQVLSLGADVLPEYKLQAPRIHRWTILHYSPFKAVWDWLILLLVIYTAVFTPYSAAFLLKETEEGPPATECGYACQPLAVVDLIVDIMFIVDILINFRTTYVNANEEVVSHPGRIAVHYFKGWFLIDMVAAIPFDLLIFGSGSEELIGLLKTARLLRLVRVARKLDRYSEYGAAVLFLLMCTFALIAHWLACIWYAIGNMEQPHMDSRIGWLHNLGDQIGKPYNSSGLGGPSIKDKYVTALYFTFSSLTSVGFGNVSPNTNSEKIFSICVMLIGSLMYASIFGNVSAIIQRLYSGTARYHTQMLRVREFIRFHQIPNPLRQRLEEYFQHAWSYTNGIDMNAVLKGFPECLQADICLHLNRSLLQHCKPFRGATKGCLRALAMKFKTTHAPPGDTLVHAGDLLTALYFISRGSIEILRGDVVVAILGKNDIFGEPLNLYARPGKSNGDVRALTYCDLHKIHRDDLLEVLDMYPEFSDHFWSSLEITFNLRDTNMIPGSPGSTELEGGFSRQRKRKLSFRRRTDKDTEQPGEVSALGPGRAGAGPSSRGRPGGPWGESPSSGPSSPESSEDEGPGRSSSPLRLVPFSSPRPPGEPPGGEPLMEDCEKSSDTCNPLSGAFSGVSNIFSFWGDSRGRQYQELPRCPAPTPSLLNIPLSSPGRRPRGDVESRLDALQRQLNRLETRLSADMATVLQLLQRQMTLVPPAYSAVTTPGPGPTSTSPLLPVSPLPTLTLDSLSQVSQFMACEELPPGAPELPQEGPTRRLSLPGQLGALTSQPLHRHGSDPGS

| Compound | hERG current change (%, negative = inhibition) at 1uM [%] |
| --- | --- |
| CCCNC(=O)Nc1nc(CC(=O)OCC)cs1 | 23.3 |
| Cc1ccc(S(=O)(=O)N2CCCCC2)cc1NC(=O)COC(=O)C1CC2C=CC1C2 (centres unmarked) | -16.7 |
| CN(C)C(=O)c1ccc(NC(=O)CSc2nc3ccccc3[nH]2)cc1 | 9.86 |
| O=C(O)CN1C(=O)/C(=C/c2cccc(Cl)c2)Oc2ccccc21 | -8.61 |
| COC(=O)c1cc(S(=O)(=O)Nc2nn(C)c3ccccc23)oc1C | 14.7 |
| O=C(COc1cccnc1[N+](=O)[O-])NCc1ccc(F)cc1 | 5.18 |
| COc1ccc(S(=O)(=O)N2CCC3(CC2)OCCN3S(=O)(=O)c2ccc(C)cc2)cc1OC | -7.55 |
| O=C(CN1C(=O)COc2ccc(S(=O)(=O)N3CCCC3)cc21)NC1CC1 | 12.5 |
| COc1ccc(NC(=O)c2ccc(Cl)cc2)c[n+]1[O-] | 5.24 |
| O=C(N/N=C/C=C\c1ccc([N+](=O)[O-])cc1)c1cccnc1 | 9.28 |
| NS(=O)(=O)c1ccc(Nc2ccc3cc(S(=O)(=O)N4CCCCC4)ccc3n2)cc1 | 9.47 |
| COc1ccc(C(=O)CC(=O)c2ccccc2O)cc1OC | 4.69 |
| CCc1cc(C(=O)N2CCCC(C(=O)c3ccc(Oc4ccccc4)cc3)C2)n(C)n1 (centres unmarked) | 7.18 |
| CC/C(=N\NC(=O)c1c(C)nc2ccccn12)c1ccc(Cl)cc1 | -7.38 |
| Nc1c(N(Cc2ccco2)C(=O)c2ccc(Br)cc2)c(=O)[nH]c(=O)n1Cc1ccccc1 | 10.5 |
| O=c1[nH]c2ccccc2n1CCC1CCCCC1 | 5.31 |
| CCN1C(=O)C(CC(=O)Nc2ccc(OC)cc2)N(Cc2ccco2)C1=S (centres unmarked) | 0.703 |
| Cn1c(SCC2CCCCC2)nnc1-c1ccncc1 | 4.33 |
| O=C1CCC(=O)N1CCC(c1ccc(F)cc1)c1ccco1 (centres unmarked) | 6.73 |
| O=C1N/C(=N\c2ccccn2)SC1Cc1ccccc1Cl (centres unmarked) | 13.5 |
| CN1C(=O)/C(=C/c2ccc(O)c([N+](=O)[O-])c2)N(C)C1=S | -10.1 |
| Cc1ccc(S(=O)(=O)N(C)C)cc1NC(=S)NNC(=O)C(N)=O | 16.4 |
| CCOC(=O)N1CCN(C(=O)c2cc3c(=O)n4ccccc4nc3s2)CC1 | 7.85 |

| Compound | hERG current change (%, negative = inhibition) at 1uM [%] |
| --- | --- |
| O=C(NCCc1cccc(F)c1)[C@@H]1CSC2c3ccccc3C(=O)N21 (some centres unmarked) | 0.16 |
| Cc1[nH]n(-c2cccc(Cl)c2)c(=O)c1-c1ccc(Cl)cc1 | 10.8 |
| CCOc1cccc2sc(=NC(=O)CCS(=O)(=O)c3ccccc3)n(CC)c12 | 10.6 |
| CC(C)C[C@H](NC(=O)CCCn1nnc2ccccc2c1=O)C(=O)O | 10.7 |
| c1ccc(NC2=NCCN2CC2CCCCC2)cc1 | 12 |
| CCN(CC(=O)NC1CCCCC1)S(=O)(=O)c1ccc(Cl)cc1 | 2.23 |
| Cc1ccccc1C(=O)OCCN1CCOCC1.Cl | 11.6 |
| CCCCCCCC(=O)NNC(=O)c1c(O)c2ccccc2n(CCC)c1=O | 10.6 |
| CCCc1cc(=O)oc2cc(C)cc(OC(C)C(=O)NCC(O)c3ccccc3)c12 (centres unmarked) | 6.92 |
| CN(C)S(=O)(=O)c1ccc(C(=O)OCC2CC2(Cl)Cl)cc1 (centres unmarked) | 13.1 |
| Cc1cc(-c2ccc(C)c(S(=O)(=O)N3CCN(c4ccc([N+](=O)[O-])cc4)CC3)c2)on1 | 1.89 |
| COc1cccc(C(=O)NCC(c2ccco2)N2CCOCC2)c1 (centres unmarked) | 5.26 |
| CN(C)/C=N/c1nc2ccc3c(c2s1)CCCC3 | 12.3 |
| Cl.c1ccc(-c2nc(NCc3ccco3)c3ccccc3n2)cc1 | 4.37 |
| COc1ccc(OCC(=O)N2CCC(Cc3ccccc3)CC2)cc1 | 9.32 |
| COc1ccc(-n2nnc3c(=O)n(C/C=C/c4ccccc4)cnc32)cc1 | -6.41 |
| N=c1c2c(-c3ccccc3)c(-c3ccccc3)n(Cc3ccco3)c2ncn1CCCn1ccnc1 | -63.6 |
| O=C(CN1CCN(c2ccccn2)CC1)Nc1cccc(Br)c1 | 2.24 |
| Clc1cc(Cl)c(OCCCCn2cncn2)c(Cl)c1 | -7.27 |
| O=C(CNC(=S)N(CCCN1CCOCC1)Cc1cccs1)N1CCCC1 | 7.33 |
| COc1ccc(OC)c(S(=O)(=O)N(C)CC(=O)N2CCN(c3ccccc3F)CC2)c1 | 4.96 |
| CC(C)CCOP(=O)(c1ccc(N(C)C)cc1)C(Nc1ccccc1)c1ccc(N(C)C)cc1 (centres unmarked) | 6.84 |
| COc1ccc(-c2c(-c3ccsc3)oc3ccc(N4CCOCC4)cc23)cn1 | 16.3 |

| Compound | hERG current change (%, negative = inhibition) at 1uM [%] |
| --- | --- |
| CCOc1ccc2c(c1)/C(=N/N1C(=O)c3ccccc3C1=O)C(=O)N2 | 18 |
| O=C1C(=O)N(Cc2ccccc2)C(=O)N1CCN1C(=O)c2ccccc2C1=O | 8.16 |
| CCCCc1ccc(NC(=O)CSc2nc(=O)n(CCN3CCOCC3)c3c2CCC3)cc1 | -8.28 |
| O=C(NC1CCSc2ccccc21)c1ccc(C(F)(F)F)cc1 (centres unmarked) | 10.3 |
| CCCNC(=O)NC(=O)CSc1nc2ccccc2n1CC(C)C | 2.61 |
| Cc1[nH]c(=O)[nH]c(=O)c1CSc1nnc([C@H](CC(C)C)NC(=O)OC(C)(C)C)o1 | 9.06 |
| O=C(COc1ccc2c(c1)CCC2)N1CCN(c2ccccc2F)CC1 | 7.44 |
| CN(CC(=O)Nc1sccc1C#N)C1CCCCC1 | 10 |
| COc1ccc(NC(=O)c2nn(C34CC5CC(CC(C5)C3)C4)cc2[N+](=O)[O-])cc1 | 14.8 |
| COCCN(C(=O)C1CCN(C(=O)c2ccccc2C)CC1)c1c(N)n(CC(C)C)c(=O)[nH]c1=O | 10.9 |
| CC(=O)NCC1CCCN(Cc2cn(-c3ccccc3F)nc2-c2cc(C)sc2C)C1 (centres unmarked) | 7.3 |
| COc1ccc(Nc2nnc(C)c(=O)[nH]2)cc1 | 2.55 |
| N#Cc1ccc(-c2ccc(F)cc2)nc1Oc1ccc(F)cc1 | 9.55 |
| Cc1ccccc1OCCC(=O)OCC(=O)Nc1ccc(C(N)=O)cc1 | 13.5 |
| Cc1ccc(C(=O)Nc2ccc(C(=O)N3CCCCC3)cc2)cc1 | 3.35 |
| Cc1cccc(NC(=O)CN(C)S(=O)(=O)c2ccc(Br)cc2)n1 | -7.61 |
| CCOC(=O)c1c(NC(=O)CN2CCOCC2)sc2c1CCCC2=O | 9.51 |
| Cc1ccc(C(C)C)cc1OCC(=O)Nc1ccccc1N1CCCC1 | 8.72 |
| Cc1oc(-c2ccc(Cl)cc2)nc1CN1CCCC(C(=O)NCc2ccccn2)C1 (centres unmarked) | -44.2 |
| Cc1c(NC(=S)NC(=O)c2cc3ccccc3o2)c(=O)n(-c2ccccc2)n1C | 5.63 |
| CCC(=O)N1CC2(CC(c3cccc(NC(=O)CC(c4ccccc4)c4ccccc4)c3)=NO2)C[C@H]1C(N)=O (some centres unmarked) | 12.7 |
| N#Cc1c(-c2ccc(F)cc2)ccnc1N1CCOCC1 | 13 |
| c1ccc(NCc2nnc3n2CCCCC3)cc1 | 7.79 |

| Compound | hERG current change (%, negative = inhibition) at 1uM [%] |
| --- | --- |
| CCc1ccc(Nc2nnc(SCC(=O)NCCN3C(=O)CSC3=O)s2)cc1 | 10.2 |
| COC(=O)c1[nH]c2ccc(Cl)cc2c1NC(=O)c1ccccc1[N+](=O)[O-] | 13.1 |
| Cn1c(=O)c2c(nc(N/N=C/c3ccncc3)n2Cc2ccccc2)n(C)c1=O | 4.79 |
| Cc1nc2sc(C(=O)c3ccccc3)c(N)c2c(C)c1C | 11.7 |
| COc1ccc(CNC(=O)CCNS(=O)(=O)c2ccc(Br)s2)cc1 | 11 |
| COc1ccc(N2CCN(C(=O)CSc3nnc(-c4ccco4)n3C)CC2)cc1 | 7.18 |
| O=C(Nc1ccc(OC(F)(F)F)cc1)C1=NCCN1 | -7.23 |
| CCCn1cnc2c(oc3ccccc32)c1=O | 9.9 |
| COC1CCCN(Cc2c(C(=O)N3CCN(C4CCCCC4)CC3)nc3ccccn23)C1 (centres unmarked) | 16.5 |
| Cc1nn(CCOc2ccccc2)c(=O)n1-c1ccccc1 | 8.84 |
| CC1(C)CC(=O)C2=C(C1)N(N1CCOCC1)C(N)=C(C#N)C2c1cccs1 (centres unmarked) | -2.85 |
| CCN(CC)C(=O)C1CCCN(c2ccc([N+](=O)[O-])cc2)C1 (centres unmarked) | -10.8 |
| Cc1ccc(C(=S)N2CCN(Cc3ccccc3)CC2)cc1 | 5.35 |
| COC(=O)C(NC(=O)c1ccccc1)=C(C)C | -4.15 |
| COc1ccccc1C(=O)Nc1ccc(-c2nnc(SCC(=O)O)n2C)cc1 | 17.6 |
| COCCn1c(SCC(=O)c2ccc3c(c2)OCCO3)nnc1-c1ccoc1C | 12.5 |
| C/C(CCc1ccco1)=N/NC(=O)CCC(=O)Nc1ccc(Br)cc1 | 11 |
| Cc1cc(C)c(NC(=O)CNC(=O)CNC(=O)C2CCCCC2)c(C)c1 | -2 |
| COc1ccc(Oc2ccc(-c3ccn[nH]3)cc2)cc1 | 2.05 |
| COc1cccc(C(c2ccccc2)N2C3CCC2CN(S(=O)(=O)c2ccc(F)cc2)CC3)c1 (centres unmarked) | -5.01 |
